# Data as given in PubChem BioAssay AID1454 (National Center for Advancing Translational Sciences (NCATS), 2008).
# Among all 130,000 compounds or so, about 550 (0.42%) were called active. This list was built around the results that the source calls inconclusive (neither active nor inactive); the mix of calls is not that of the screen. Calls follow the shape of the dose curve; as a rule, active = well fitted inhibition curve with a large enough effect; inconclusive = small, poorly fitted or top-dose-only effect, or effect the other way; inactive = flat fitted curve, though single readings scatter. No potency is given beside an inconclusive call; the fits are too rough.
# Test: qHTS Assay for Inhibitors of the ERK Signaling Pathway using a Homogeneous Screening Assay; Stimulation with EGF; also: nearly all actives have a fitted effect of over 55% in size;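 as to activity change, negative = inhibition: plate controls were stimulated vehicle wells for no effect and unstimulated vehicle basal for full effect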
# Details: HEK293-V1b, EGF-stimulated phospho-ERK AlphaScreen; activity change, negative = inhibition: at the top concentration
# How it was run: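 Compounds are titrated over HEK293-V1b cells kept overnight in 1% FBS. After 30 min at 37C, EGF (25 nM final) triggers ERK phosphorylation for 5 min, measured by AlphaScreen in lysates.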
# Potency is read from the fitted curve at half-maximal effect; tags tell the direction and shape of the fitted curve.
Compound,Potency,"activity change, negative = inhibition"
CCOC(=O)C1=C(C)N(CC(C)C)C(=O)/C1=C\c1cccs1,"inconclusive [inhibitor, partial curve, poor fit]",
CCc1cccc2c(C(=O)COC(=O)/C=C/c3ccc(O)c(OC)c3)c[nH]c12,"inconclusive [inhibitor, single point]",
Cc1ccc(C2N(c3ccccc3)C(=O)N3CCCN23)cc1 (stereo not drawn),"inconclusive [inhibitor, full curve, poor fit]",
O=C(Nc1cccc(S(=O)(=O)N2CCCC2)c1)c1ccc2c(=O)n3c(nc2c1)CCCCC3,"inconclusive [inhibitor, single point]",
CC1(c2ccccc2)CC(C)(C)n2c(O)c(C3=NC(=S)NC3=O)c3cccc1c32 (stereo not drawn),"inconclusive [inhibitor, partial curve]",
NCCCCNS(=O)(=O)c1cccc2c(Cl)cccc12,"inconclusive [inhibitor, single point]",
CC(C)CN1CCC2(CC1)CCN(C(=O)c1cnccn1)CC2,,inactive: -6.69%
Nc1ncnc2c1c(-c1ccc(Oc3ccccc3)cc1)cn2C1CCCC1,"inconclusive [inhibitor, single point]",
C=CC1(C)CC(=O)C2(O)C(C)(O1)C(OC(C)=O)C(O)C1C(C)(C)CCC(O)C12C (stereo not drawn),"inconclusive [inhibitor, partial curve]",
CNC(=S)N(CCc1c(C)[nH]c2ccc(Cl)cc12)Cc1cccs1,"inconclusive [inhibitor, single point]",
Cc1cc(C(=O)COC(=O)c2cccnc2Cl)c(C)n1CC1CCCO1 (stereo not drawn),,inactive: 0.104%
c1ccc(-c2nc(-c3ccccc3)c(NC3CCCCC3)o2)cc1,,inactive: 2.87%
c1csc(-c2nc3c4ccccc4c4ccccc4c3[nH]2)c1,"inconclusive [inhibitor, single point]",
Cc1ccc(CNC(=O)c2cc(-c3cc(C)cc(C)c3O)n[nH]2)cc1,"inconclusive [inhibitor, single point]",
COc1cccc(/C=C2\Sc3ccc(C(=O)NCc4cccnc4)cc3N(C)C2=O)c1,"inconclusive [inhibitor, single point]",
CCCCC/C=C\C\C=C/C=C/C=C/[C@@H](SCC(N)C(=O)NCC(=O)O)[C@@H](O)CCCC(=O)O (stereo partly drawn),,inactive: -13.5%
COCCCNCCCOc1ccc(Cl)cc1C(C)(C)C,"inconclusive [inhibitor, single point]",
C/C(=C/CCC(C)C1CCC2(C)C3CCC4C(C)(C)C(=O)CCC4(C)C3=CCC12C)C(=O)O (stereo not drawn),"inconclusive [inhibitor, single point]",
Cc1cc(NC(=S)N(Cc2ccc(Br)cc2)Cc2ccc(C(=O)O)cc2)ccc1Cl,"inconclusive [inhibitor, single point]",
COc1cc(C(=O)Nc2nc(-c3cc(C)ccc3C)c(C)s2)ccc1OCC(=O)Nc1ccc(F)cc1,,inactive: 2.71%
COC(=O)c1sc2nc(CSc3ccc(Br)cc3)[nH]c(=O)c2c1C,"inconclusive [inhibitor, single point]",

Compound,Potency,"activity change, negative = inhibition"
c1ccc2c(c1)CCN(Cc1nnnn1Cc1ccc3c(c1)OCO3)C2,"inconclusive [inhibitor, single point]",
COCCNC(=O)/C(C#N)=C/c1cccc(/C=C(\C#N)C(=O)NCCOC)c1,"inconclusive [inhibitor, single point]",
Fc1cccc(CSc2ccc3nnc(-c4ccccn4)n3n2)c1,,inactive: -8.81%
Oc1ccc(-c2csc(-c3cccnc3)n2)cc1O,"inconclusive [inhibitor, partial curve]",
Brc1csc(/C=N/Nc2nc3ccccc3s2)c1,"inconclusive [inhibitor, partial curve]",
Cc1cc2ccccn2c1C(=O)c1ccc(NN)c([N+](=O)[O-])c1,active: 25.1 µM,
COC(=O)c1ccc(C(NC(=O)OCc2ccccc2)/C(=C/[C@@H](C)C(=O)NCC2CC2)c2cccnc2)cc1 (stereo partly drawn),"inconclusive [inhibitor, single point]",
Cc1nn(-c2nnc(NCc3ccccc3)nn2)c(C)c1Br,active: 22.4 µM,
CC(C)c1ccccc1OCCNC(=S)NC(=O)c1cccnc1,"inconclusive [inhibitor, partial curve]",
C=CCn1c(Sc2ncc([N+](=O)[O-])s2)n[nH]c1=O,"inconclusive [inhibitor, single point]",
COc1ccc([N+](=O)[O-])c(S(=O)(=O)c2ccccc2)n1,"inconclusive [inhibitor, single point]",
Cc1ccc2c(c1)-c1ncc(C(=O)c3cc(Br)ccc3O)cc1CO2,"inconclusive [inhibitor, partial curve, poor fit]",
COc1ccc(-c2csc(NC3OC(=O)c4c3ccc(OC)c4OC)n2)cc1OC (stereo not drawn),"inconclusive [inhibitor, partial curve]",
COc1ccc(CN2CCCC(C(=O)c3ccc(Cl)cc3)C2)cc1Cn1cncn1 (stereo not drawn),"inconclusive [inhibitor, partial curve]",
Cc1ccc(NC(=O)c2cc(=O)c3ccccc3o2)cc1S(=O)(=O)N1CCCCC1,"inconclusive [inhibitor, single point]",
CCOc1cc(/C=N/Nc2nc(-c3cccc(S(=O)(=O)N4CCCC4)c3)cs2)ccc1O,"inconclusive [inhibitor, partial curve]",
COc1cccc(NC(=S)NCc2ccc3c(c2)cc(C)n3C)c1,"inconclusive [inhibitor, single point]",
C=CCn1c(SCc2nc3scc(-c4ccccc4)c3c(=O)[nH]2)nnc1-c1ccccc1F,"inconclusive [inhibitor, single point]",
CCCCC/C=C\C[C@@H](O)/C=C/C=C/C=C\[C@@H](O)CCCC(=O)O,,inactive: -9.42%
O=C(CNC(=O)c1ccccc1F)N/N=C/c1cc(Br)ccc1OC(=O)/C=C/c1ccco1,,inactive: -6.92%
COc1ccc(Nc2ccnc(Nc3ccc(OC)cc3)n2)cc1,active: 35.5 µM,

Compound,Potency,"activity change, negative = inhibition"
S=c1[nH]nc(-c2ccccc2)n1/N=C/C=C/c1ccco1,,inactive: 10.3%
COc1ccc(C(=O)c2ccc([N+](=O)[O-])cc2Cl)cc1,"inconclusive [inhibitor, single point]",
Cc1nc(CCNC(=O)c2cc(COc3ccc(F)cc3Cl)on2)sc1C,"inconclusive [inhibitor, partial curve]",
CC(C)(C)OC(=O)N/N=C/c1cccn1-c1ccc([N+](=O)[O-])cc1,"inconclusive [inhibitor, single point]",
Cc1ccc(CN2CCN(Cc3nc4ccccc4nc3C)CC2CCO)cc1 (stereo not drawn),"inconclusive [inhibitor, single point]",
O=C(/C=C/c1ccc(-c2cccc([N+](=O)[O-])c2)o1)N1CCOCC1,"inconclusive [inhibitor, partial curve, poor fit]",
COc1ccc(NC2c3ccccc3C(=O)N2Cc2ccccc2Cl)cc1OC (stereo not drawn),"inconclusive [inhibitor, partial curve]",
COc1cc(/C=C/[N+](=O)[O-])ccc1OCc1cccc(C(=O)O)c1,"inconclusive [inhibitor, single point]",
CC(C)C[C@H](NC(=O)c1nc[nH]c1C(=O)NC1CCN(C(=O)OC(C)(C)C)CC1)C(=O)OCc1ccccc1,"inconclusive [inhibitor, single point]",
O=C(O)c1ccc(COc2ccc3ccccc3c2/C=C2/NC(=O)N(Cc3ccc(F)cc3)C2=O)cc1,active: 35.5 µM,
Cc1ccc(NS(=O)(=O)c2ccc3c(c2)C(=O)c2ccccc2C3=O)c(C)c1,"inconclusive [inhibitor, single point]",
CC(=O)Nc1ccc(S(=O)(=O)Nc2nc3ccccc3nc2Nc2ccc3ccccc3c2)cc1,"inconclusive [inhibitor, single point]",
O=C1c2ccccc2-c2onc3ccc(N4CCCC4)c1c23,"inconclusive [inhibitor, partial curve]",
O=C(NCCN1CCOCC1)c1cc(S(=O)(=O)Nc2ccccc2F)c(Cl)cc1Cl,"inconclusive [inhibitor, partial curve, poor fit]",
CC(C)OC(=O)c1c2c(n3ccccc13)C(=O)c1ccccc1C2=O,"inconclusive [inhibitor, partial curve]",
CCn1c(SCC(=O)NCCc2ccccc2)nc2sc3c(c2c1=O)CCN(C)C3,"inconclusive [inhibitor, partial curve]",
CN(C)c1nc(C(=O)O)nc(N2CCOCC2)n1,"inconclusive [inhibitor, full curve, poor fit]",
CCOCC(=O)Nc1nc2ccccc2s1,"inconclusive [activator, full curve, poor fit]",
CC(=O)C1=NN(c2ccccc2)C(c2ccc3c(c2)OCO3)N1c1ccccc1 (stereo not drawn),"inconclusive [activator, partial curve]",
Cc1ccc(S(=O)(=O)Nc2nc3ccccc3nc2NCC2CCCO2)c(C)c1 (stereo not drawn),"inconclusive [inhibitor, full curve, poor fit]",
Cc1nn(Cc2ccccc2Cl)c(C)c1C(=O)NCCN1C(=O)S/C(=C\c2ccccc2)C1=O,"inconclusive [inhibitor, single point]",
